Results taken from ChEMBL document CHEMBL1201862, “PubChem BioAssay data set” (2004).
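Tested at 5 concentrations; 48 h exposure; 96-well plates; endpoints linearly interpolated, else capped at highest concentration. The concentration for 50% growth inhibition is given as GI50.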 Calls of active or inactive are those of the source. No stated cut-off is given here; in the data, active = GI50 up to about 1.1 µM and inactive = higher.

What follows are compounds tested on NCI-H322M (assay: NCI tumour cell line growth inhibition, 48 h).

Compound | GI50
CN(C)CCO/N=C1/C=C2CC[C@H]3[C@@H]4CC[C@H](O)[C@@]4(C)CC[C@@H]3[C@@]2(C)CC1 | inactive: 11.5 µM
CCOc1cc(NC(C)=O)ccc1C(=O)NNS(=O)(=O)c1ccc(Cl)cc1Cl | inactive: > 50 µM
Cc1ccc(S(=O)(=O)SC/C=C\CSS(=O)(=O)c2ccc(C)cc2)cc1 | inactive: 52.4 µM
C=CC1(C)CCC2C(=CCC3C(C)(COC4OC(C(=O)O)C(O)C(O)C4O)C(O)CCC23C)C1.C=CC1(C)CCC2C(=CCC3C2(C)CC(O)C(O)C3(C)COC2OC(C(=O)O)C(O)C(O)C2O)C1 (stereo unspecified) | inactive: > 100 µM
O=C(NNC(=O)c1ccccc1O)c1cccc(Br)c1 | inactive: 47.1 µM
Cc1n[nH]c(=O)n1C1CC1 | inactive: > 100 µM
c1ccc(NNC2=NCCN2)cc1 | inactive: > 100 µM
O=c1cc(-c2ccccc2)oc2ccc(Cl)cc12 [6-CHLOROFLAVONE] | inactive: > 64 µM
O=[N+]([O-])C=C(c1ccc(Cl)cc1)c1ccc(Cl)cc1 | inactive: 16.5 µM
CCCCCCCCCCCC(=O)C1=C(O)CC(O)CC1=O (stereo unspecified) | inactive: > 100 µM
C=C1CCN2CC[C@@H](OC(=O)/C(C)=C\C)[C@@H]12 | inactive: > 100 µM
CC1(Br)C(=O)NC(=O)N([C@H]2C[C@H](O)[C@@H](CO)O2)C1N=[N+]=[N-] (stereo partly specified) | inactive: > 100 µM
COC1=C(Cl)C(=O)c2c(O)ccc(O)c2C1=O | inactive: 3.31 µM
Nc1ccn(C2OC(COP(=O)(O)OCC3OC(n4cc(F)c(=O)[nH]c4=O)CC3O)C(O)C2O)c(=O)n1 (stereo unspecified) | inactive: > 100 µM
N#Cc1c(-c2ccc([N+](=O)[O-])cc2)cc(-c2ccc(Nc3ccnc4cc(C(F)(F)F)ccc34)cc2)nc1N | inactive: 30.6 µM
Cc1cc2c(=O)[nH]nc(N)c2c(N)n1 | inactive: > 100 µM
C=C[C@H]1CN2CCc3c([nH]c4c([C@H]5CCCN5C)c(O)ccc34)[C@@H]2C[C@@H]1C[C@H]1c2[nH]c3ccccc3c2CCN1C [STRYCHNOPENTAMINE] | inactive: 1.61 µM
Cc1ccc(O)c(-c2cc(-c3cccc(Br)c3)on2)c1 | inactive: 22.2 µM
O=c1[nH][nH]c(=O)[nH]1 | inactive: > 100 µM
C[S+]=c1sc2ccccc2s1 | inactive: > 100 µM
CN(C)CC(C)(C)/C(=N\Nc1ccccc1)c1ccccc1 | inactive: > 100 µM
O=[N+]([O-])c1cccc(Nc2nc(Cl)nc(Cl)n2)c1 | inactive: > 100 µM
COc1ccc(OC)c(-c2cn3c(n2)sc2ccccc23)c1 | inactive: > 100 µM

Compound | GI50
CCOC(=O)CC1(C(=O)OCC)c2[nH]c3ccccc3c2CCN1Cc1ccccc1 (stereo unspecified) | inactive: 31.4 µM
CC(C)=CCC/C(C)=C/CCC(C(=O)COCc1ccccc1)P1(=O)OC(C)(C)CN1C(C)(C)C (stereo unspecified) | inactive: 96.4 µM
O=C(O)c1cccc(/[As]=[As]\c2cccc(C(=O)O)c2)c1 (stereo unspecified) | inactive: > 100 µM
Cc1ccc(O)c(C(c2cccc(C(c3cc(C)ccc3O)c3cc(C)ccc3O)c2)c2cc(C)ccc2O)c1 | inactive: 1.61 µM
N#CCc1nc(-c2cc3c(ccc4ccccc43)oc2=O)cs1 | inactive: > 100 µM
CNNC1=NS(=O)(=O)c2cc(C)c(Cl)cc2S1 | inactive: > 10 µM
OC[C@H]1N[C@H](CO)[C@@H](O)[C@H]1O | inactive: > 100 µM
CN(C)C(=S)C(Cl)(c1ccccc1)c1ccccc1 | inactive: > 100 µM
Oc1c(C2=N[C@H]3CCCC[C@@H]3N2)ccc2ccccc12 | inactive: > 100 µM
CC(C)(C)[Si](C)(C)OC1C(=O)C[C@H]2CCCC[C@@H]12 (stereo partly specified) | inactive: > 100 µM
CCOC(=O)C(NC(=O)c1ccccc1)(N1CCOCC1)C(F)(F)F (stereo unspecified) | inactive: > 100 µM
CCOC(=O)/C=C(/C(=O)OCC)n1cc(C)c(=O)n(Cc2cnnn2COCCOC(C)=O)c1=O | inactive: > 100 µM
N#C/C(=C\c1ccc(Br)cc1)c1nc(-c2cc3ccccc3oc2=O)cs1 | inactive: 34.5 µM
N#Cc1c(NN)nc(NN)c(C#N)c1-c1ccccc1 | inactive: > 100 µM
COC(=O)[C@H](C)NC(=O)C1(CNC(=O)[C@H](C)NC(=O)OC(C)(C)C)Cc2ccccc2-c2ccccc2C1 | inactive: > 49.3 µM
CCOC(=O)N/N=C(\Cc1ccc([N+](=O)[O-])cc1)OCC | inactive: > 100 µM
Fc1ccc(C(OCCN2CC3CCC(C2)N3CCCc2ccccc2)c2ccc(F)cc2)cc1 | inactive: 10.3 µM
O=C(CCC(C(=O)OCc1ccccc1)C(=O)OCc1ccccc1)Nc1ccc(OCc2ccccc2)cc1 | inactive: 1.16 µM
COC(=O)C1CC(OC(C)=O)C=C2C(=O)CCC21 (stereo unspecified) | inactive: 30.3 µM
CCOC1C=CC(=O)C(CO)O1 (stereo unspecified) | inactive: 18.3 µM
N#CCCN(c1ccc(/C=N/c2ccc(C(=O)O)cc2)cc1)S(=O)(=O)c1ccccc1 | inactive: > 100 µM
O=C1CCCc2ccc3c(c21)CC1(Cc2ccccc2C1)C3 | inactive: 28.9 µM
O=c1[nH]nc(-c2ccccc2)n1/N=C/c1ccccc1Cl | inactive: 42.8 µM

Compound | GI50
CC(C)(C)C1=CC(C)(n2[nH]c(=O)n(-c3ccccc3)c2=O)C=C(C(C)(C)C)C1=O | inactive: > 100 µM
CN(C)CCNc1ccc2nnn3c4ccccc4c(=O)c1c23 | inactive: 2.81 µM
Cc1cccc(/N=C2\NC(=O)C(CC(=O)Nc3ccc(C)cc3C)S2)c1 (stereo unspecified) | inactive: > 100 µM
CC(C)=CC(Cc1ccccc1)S(=O)(=O)c1nc2ccccc2s1 (stereo unspecified) | inactive: 20.5 µM
CN(C)CCNC(=O)c1cccc2[nH]c(-c3ccc(Cl)cc3)nc12 | inactive: 10.3 µM
O=C1c2ccccc2C2(c3ccc(Cl)cc3)NCc3ccccc3CN12 (stereo unspecified) | inactive: 15.8 µM
CCOC(=O)c1cc(NC(=O)N(CCC#N)CCN(C(=O)N[C@@H](Cc2ccccc2)C(=O)N[C@@H](CC(C)C)C(=O)NC)c2ccccc2)ccc1OC | inactive: 79.8 µM
COc1ccc2c(c1)C(N)=C(Cc1ccncc1)C2=O | inactive: > 100 µM
CN1C(=O)C2C3C=C4c5ccccc5N(c5ccccc5)C4(C2C1=O)[C@H]1C(=O)N(C)C(=O)[C@@H]31 (stereo partly specified) | inactive: > 100 µM
C/C(=N\NC(=S)N(C)C)c1ncc[nH]1 | inactive: 5.24 µM
O=S(=O)(c1ccccc1)c1ccc(/N=N/O)nc1 | inactive: > 100 µM
O=C1NC(=S)NC(=O)C1=CC1CC1 | inactive: > 100 µM
O=C1NC2C3CC(OCc4ccccc4)(OCc4ccccc4)C2OC3O1 (stereo unspecified) | inactive: > 50 µM
C=CCC1(O)CC(n2cc(C)c(=O)[nH]c2=O)OC1CO[Si](C)(C)C(C)(C)C (stereo unspecified) | inactive: 74.3 µM
COC(=O)C1C(OS(=O)(=O)O)CCC2CN3CCc4c([nH]c5ccccc45)C3CC21 (stereo unspecified) | inactive: > 100 µM
O=C(Nc1ccccc1-c1nn(CN2CCNCC2)c(=S)n(CN2CCNCC2)c1=O)C(F)(F)F | inactive: 22.1 µM
COc1cc(Oc2c(C)c(Cl)c(OC)c(Cl)c2OC)c2c(c1Cl)COC2=O | inactive: 31 µM
COc1cc2c(cc1OC)C(=O)N1CCCC1C(=O)S2 (stereo unspecified) | inactive: > 100 µM
O=C(O)C1CCCCN1CCc1c[nH]c2ccccc12 (stereo unspecified) | inactive: > 100 µM
CCOC(=O)CCC(NC(=O)Cc1ccc(Nc2nc3ccccc3nc2-c2ccccc2)cc1)C(=O)OCC (stereo unspecified) | inactive: > 100 µM
C=C[C@@H](C)[C@H](NS(=O)(=O)c1ccc(C)cc1)C(=O)OCC | inactive: 53.2 µM
O=C1C(N2CCCC2)=CC(=O)c2c(O)c(N3CCCC3)c(Cl)c(O)c21 | inactive: > 10 µM
O=C1[C@H](c2ccccc2)C2c3ccccc3CCN12 (stereo partly specified) | inactive: > 10 µM

Compound | GI50
Fc1ccc(C(OCCN2CCC3CCC(C2)N3Cc2cc3ccccc3[nH]2)c2ccc(F)cc2)cc1 (stereo unspecified) | inactive: 2.61 µM
CCCn1c2c(c3ccccc3c1=O)C(=O)c1ccccc1-2 | inactive: > 81.1 µM
COc1cccc(N2C(=O)CS(=O)(=O)C2c2cccc(Oc3ccccc3)c2)c1 (stereo unspecified) | inactive: 21.6 µM
CC(C)=CCc1c(O)ccc2c1OC1c3ccc(O)c(CC=C(C)C)c3OCC21 (stereo unspecified) | inactive: 13.6 µM
O/N=N/c1ccc(-c2ccccc2)cn1 | inactive: 33.6 µM
COC(=O)C1=NN2c3ccccc3CN([C@@H](C)c3ccccc3)C(=O)[C@H]2[C@@H]1C | inactive: 61.2 µM
O=C1NC(Cc2c[nH]c3ccccc23)C(=O)N2C(C3CCCCC3)c3[nH]c4ccccc4c3C[C@@H]12 (stereo partly specified) | inactive: 21.1 µM
CSC1CC2C(CC1(C)O)C2(C)C (stereo unspecified) | inactive: > 100 µM
Cc1cc(Cl)ccc1OCC(=O)Oc1c(Cl)c(Cl)c(Cl)c(Cl)c1Cl | inactive: 20.8 µM
CC(C)OP(=O)(c1ccccc1)c1ccc2c(c1)OCCOCCOCCOCCO2 (stereo unspecified) | inactive: > 100 µM
CC(=O)O[C@@H]1C[C@@]2(C)[C@@H]3CC=C4[C@@H](C[C@H](O)C(=O)C4(C)C)[C@]3(C)C(=O)C[C@]2(C)[C@H]1[C@@](C)(O)C(=O)/C=C/C(C)(C)OC(C)=O | inactive: 10.6 µM
CCC(=O)Nc1ncnc2ncn(C(=O)CC)c12 | inactive: > 100 µM
C[n+]1c(-c2ccccc2)cc2/c(=C\c3ccccc3)c3ccccc3n21 | inactive: 3.56 µM
O=C1O[C@]2(c3ccccc3)C(c3ccccc3)=C[C@]2(C(=O)c2ccccc2)C1=O | inactive: 47.2 µM
O=C(O)[C@@H](NS(=O)(=O)c1ccc2ccccc2c1)c1ccccc1 | inactive: > 100 µM
NC(Cc1ccccc1)C(=O)OCN1C(=O)C2C3C=CC(C2C1=O)C1C2C(=O)N(COC(=O)C(N)Cc4ccccc4)C(=O)C2C31 (stereo unspecified) | inactive: 77.1 µM
CC1=CC23C(COC(=O)C24CO4)C(C(=O)O)=CC3C1C (stereo unspecified) | inactive: 23.1 µM
O=c1[nH]c2ccc(C(F)(F)F)cc2nc1C(F)(F)F | inactive: 26.2 µM
N#CCc1ccc(C(C#N)/C(CCCC(=O)Nc2cccc([N+](=O)[O-])c2)=N\NC(=O)NN)cc1 (stereo unspecified) | inactive: > 100 µM
Cc1c(Cl)ccc2c1NC(=O)C2(O)C(C(=O)c1ccccc1)c1ccccc1 (stereo unspecified) | inactive: > 100 µM
C=CCc1cccc2cc(C(=O)Nc3ccccc3)c(=N)oc12 | inactive: 15.6 µM
C[C@@H](C(=O)O)N1C(c2ccco2)=C(/C(C=O)=C\c2ccco2)C(=O)/C1=C\c1ccco1 | inactive: > 100 µM
